Laboratory results taken from article PMC6212790.
Some of the results follow. At the low end of the ranking the order means little.
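Also: rank score from −0.5 (least bound) to 0.5 (best bound).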

What follows are sequences tested against T1, GST-Rok (full length) (UniProt O34857) (assay: protein binding microarray). Conditions: Rok is a gene silencer of Bacillus subtilis; high values mean tight binding; most listed sequences are background and not binding sites; double strand, one strand shown.
T1 sequence: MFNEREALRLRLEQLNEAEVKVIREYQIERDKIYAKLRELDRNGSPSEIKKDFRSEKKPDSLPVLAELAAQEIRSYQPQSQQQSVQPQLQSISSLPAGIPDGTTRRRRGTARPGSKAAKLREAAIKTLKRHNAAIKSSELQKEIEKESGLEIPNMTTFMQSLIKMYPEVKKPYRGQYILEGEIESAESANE
Sequence CCCTGGAC has a binding signal of -0.273 E-score. Sequence CGATAAAG has a binding signal of 0.0758 E-score. For CCGGTAAA, the binding signal was 0.107 E-score. AGCGCGTA showed a binding signal of 0.0593 E-score. For CCGGGAGA, the binding signal was -0.252 E-score. GGTCCGCA gave a binding signal of -0.0402 E-score. CGGCCTAG gave a binding signal of -0.123 E-score. For CGAGTCAA, the binding signal was -0.0796 E-score. For AATACGCT, the binding signal was -0.0694 E-score. In the case of CAAGCAAA, the binding signal is reported as -0.0528 E-score. CGATCAGC gave a binding signal of -0.222 E-score. CTATCGTC gave a binding signal of 0.179 E-score. Work on CGAGTATC yielded a binding signal of 0.00408 E-score. In the case of GGCCTGAC, the binding signal is reported as -0.257 E-score. For TGCTTTAA, the binding signal was -0.000842 E-score. ACGCAACG gave a binding signal of 0.161 E-score. Sequence ATTATATA has a binding signal of 0.468 E-score. In the case of GACCAATA, the binding signal is reported as -0.0708 E-score. Sequence AATCGCCG has a binding signal of 0.00645 E-score. CTATACAA showed a binding signal of 0.296 E-score. Sequence ACACGCTG has a binding signal of 0.0269 E-score. Sequence AACTGCTC has a binding signal of -0.0931 E-score. ACTCCTAC showed a binding signal of 0.0513 E-score. CTTGCCCC showed a binding signal of -0.283 E-score. For GAGGCACC, the binding signal was -0.179 E-score. Work on ACGGAATA yielded a binding signal of 0.136 E-score. CCGCGATC was tested, and the binding signal was -0.211 E-score. CCGACACC was tested, and the binding signal was -0.215 E-score. With GAAAGCCA the binding signal was -0.283 E-score. Work on ACAATCAG yielded a binding signal of -0.0411 E-score. Work on CGGGTACC yielded a binding signal of -0.166 E-score. CAGGGCTA showed a binding signal of 0.015 E-score. TAAGCCGA gave a binding signal of -0.0712 E-score. CTAGTCAC gave a binding signal of 0.0889 E-score. ATCAAGTC was tested, and the binding signal was -0.0978 E-score. Work on ACCTTCCG yielded a binding signal of -0.0903 E-score. For CCACGTAG, the binding signal was -0.0737 E-score. For CGATGCCG, the binding signal was -0.0967 E-score. Sequence CCAATACG has a binding signal of -0.00833 E-score. ATCTACGA gave a binding signal of 0.275 E-score. Sequence CGTTATTC has a binding signal of 0.0632 E-score. Work on AACTCGCC yielded a binding signal of -0.0433 E-score. Sequence TATAGTGA has a binding signal of 0.224 E-score. For AGATCCTC, the binding signal was -0.00805 E-score. For CTCGACCC, the binding signal was -0.355 E-score. For CGTTCAGC, the binding signal was -0.336 E-score. Sequence TCGATGAA has a binding signal of 0.0147 E-score. Work on CGCCAACG yielded a binding signal of -0.298 E-score. ACGGATGA gave a binding signal of -0.0612 E-score. ACCGTAAC gave a binding signal of 0.0734 E-score. In the case of TTGTTAAA, the binding signal is reported as 0.157 E-score. For AACGCTGA, the binding signal was 0.0852 E-score. For ATGTTCAG, the binding signal was 0.135 E-score. In the case of AATATGGA, the binding signal is reported as 0.165 E-score. AATAGTTA gave a binding signal of 0.372 E-score. AAAACAAC gave a binding signal of 0.0571 E-score. AAGGATAA showed a binding signal of 0.0145 E-score. Sequence CCCGTGAA has a binding signal of -0.313 E-score. Work on CAGTTCGG yielded a binding signal of -0.128 E-score. Work on ATCTAGTA yielded a binding signal of 0.408 E-score. For ACTCCACA, the binding signal was -0.0173 E-score. CGTTGCCA was tested, and the binding signal was -0.0522 E-score. For ATGCTACC, the binding signal was 0.138 E-score. GCCGAGTA showed a binding signal of -0.172 E-score. Work on ACAGAACT yielded a binding signal of 0.276 E-score. In the case of ACTCTATG, the binding signal is reported as 0.00068 E-score. AGAGGATC gave a binding signal of -0.156 E-score. AAGTCCGT gave a binding signal of 0.00287 E-score. Sequence AAGGTTCG has a binding signal of 0.0496 E-score. In the case of CTTCCCCA, the binding signal is reported as -0.119 E-score. Sequence CAAAAGAG has a binding signal of -0.188 E-score. With CGAGGCCA the binding signal was -0.199 E-score. With GATGTTAA the binding signal was 0.0521 E-score. Sequence GGCGGGGA has a binding signal of -0.459 E-score. With TAATCCTA the binding signal was 0.171 E-score. With GAAACAAA the binding signal was 0.0675 E-score. With CGTATTAC the binding signal was 0.285 E-score. GTGCGGTA was tested, and the binding signal was -0.0045 E-score. For AAGTACAT, the binding signal was 0.225 E-score. Sequence CTGGCAAG has a binding signal of -0.136 E-score. ACGTAAAA was tested, and the binding signal was 0.112 E-score. CGATCTTA showed a binding signal of -0.0625 E-score. For AACGGCAC, the binding signal was -0.0326 E-score. For AGATCATC, the binding signal was -0.0566 E-score. With CTAATCGA the binding signal was 0.122 E-score. Work on AACTACCC yielded a binding signal of 0.292 E-score. AGAGTTTA gave a binding signal of 0.263 E-score. For AAGCACCC, the binding signal was -0.232 E-score. Work on GATCCGAA yielded a binding signal of -0.0152 E-score. Work on CGCTCGAA yielded a binding signal of -0.139 E-score. AGCCGCTC showed a binding signal of -0.25 E-score. Sequence TCAATACA has a binding signal of 0.146 E-score. CTACGTCA showed a binding signal of -0.138 E-score. TCCCGACA was tested, and the binding signal was -0.132 E-score. ATGAACGA showed a binding signal of 0.0418 E-score. Sequence AAACCCCT has a binding signal of -0.338 E-score. AACCGGCC gave a binding signal of -0.261 E-score. ACGTTTAG gave a binding signal of 0.18 E-score. Sequence ACTAGGGA has a binding signal of -0.0513 E-score. For GAGCGTAA, the binding signal was 0.0531 E-score. In the case of CCATCTAC, the binding signal is reported as 0.196 E-score. Sequence TCCGAGGA has a binding signal of 0.0203 E-score. With ATAAACGA the binding signal was 0.14 E-score. For CTGAGCCC, the binding signal was -0.268 E-score. CTCAGTGC showed a binding signal of -0.107 E-score. With AGTCCGTC the binding signal was -0.0948 E-score. In the case of ATCAGGAT, the binding signal is reported as -0.042 E-score. In the case of ATGAACTC, the binding signal is reported as -0.0903 E-score. For ATGCCACA, the binding signal was 0.0127 E-score. Sequence AAGGTTAT has a binding signal of 0.00534 E-score. Sequence GGGCTTCA has a binding signal of -0.226 E-score. CGACGGCA showed a binding signal of -0.139 E-score. Work on AACGGTCC yielded a binding signal of -0.24 E-score. AGGAACAG showed a binding signal of -0.0674 E-score. For GACCTCTA, the binding signal was -0.146 E-score. In the case of TACGTAGA, the binding signal is reported as 0.288 E-score. GGTAGAAA gave a binding signal of 0.472 E-score. TTTTAAAA was tested, and the binding signal was 0.0987 E-score. With AAACATAG the binding signal was 0.247 E-score. In the case of AGGAATAT, the binding signal is reported as 0.191 E-score. Sequence CAGCACCA has a binding signal of -0.21 E-score. ATTCGCGG was tested, and the binding signal was -0.0779 E-score. Sequence TAACCTAA has a binding signal of 0.0383 E-score. Sequence ACGTTTCG has a binding signal of 0.00327 E-score. CACATTCA showed a binding signal of 0.0529 E-score. For ATATCGCA, the binding signal was 0.173 E-score. In the case of ATTCGTGC, the binding signal is reported as 0.12 E-score. With GATACAAA the binding signal was 0.318 E-score. GGTCTTGA showed a binding signal of -0.171 E-score. ACGCTATA showed a binding signal of 0.173 E-score. With ACTTTGCC the binding signal was -0.0651 E-score. AAGGATAT was tested, and the binding signal was 0.151 E-score. CTATCTGC was tested, and the binding signal was -0.0701 E-score. With CCCTATAC the binding signal was 0.0647 E-score. GACAAATA showed a binding signal of 0.179 E-score. AATCTCTA was tested, and the binding signal was 0.152 E-score. CACCGCTA gave a binding signal of -0.117 E-score. Work on CGAAAGGC yielded a binding signal of -0.183 E-score. Sequence GTCTGAGA has a binding signal of 0.0352 E-score. With AGCGAACA the binding signal was -0.013 E-score. For AGCCTCCG, the binding signal was -0.44 E-score. For AGTACTTA, the binding signal was 0.349 E-score. CAGGTTTC was tested, and the binding signal was -0.0637 E-score. CAAACTAG was tested, and the binding signal was 0.329 E-score. GAAAGGTC showed a binding signal of -0.217 E-score. CATTATTA was tested, and the binding signal was 0.326 E-score. Sequence ACCGCGTA has a binding signal of -0.0835 E-score. Work on CACATGAG yielded a binding signal of 0.171 E-score. CACCTACG was tested, and the binding signal was 0.00802 E-score. GGAACACA showed a binding signal of -0.0735 E-score. AAGCAAAA gave a binding signal of 0.0376 E-score. Work on CTGGGGCC yielded a binding signal of -0.376 E-score. CGGGGACC showed a binding signal of -0.351 E-score. Sequence CATCTGTA has a binding signal of 0.183 E-score. AAATTGGC gave a binding signal of -1.6e-05 E-score. In the case of GAGGTTCA, the binding signal is reported as -0.294 E-score. For ACCAGTTA, the binding signal was 0.163 E-score. AAGGTAGT was tested, and the binding signal was 0.354 E-score. With CGGCCTCA the binding signal was -0.303 E-score. With CACCAGTA the binding signal was -0.00869 E-score. Sequence CGAAGCAC has a binding signal of -0.2 E-score. ACAGTAGT showed a binding signal of 0.296 E-score. Sequence CCTCACGA has a binding signal of -0.14 E-score. With GGAAAGTA the binding signal was 0.244 E-score. GACACTCA gave a binding signal of 0.0106 E-score. Sequence CCGTTATC has a binding signal of 0.104 E-score. TAATAATA was tested, and the binding signal was 0.395 E-score. Sequence GACTTACA has a binding signal of 0.0795 E-score. For CCCTATAG, the binding signal was -0.261 E-score. CCACCAAG showed a binding signal of -0.106 E-score. Sequence ATTTCCTG has a binding signal of 0.0706 E-score. Work on CACGCAAC yielded a binding signal of -0.0388 E-score.
